PubChem BioAssay (NCATS)
Values joined by “and” are separate entries in the source; they are usually repeats but may differ in a detail not shown here. Equal values may be shown once. Inconclusive means that the source gave no clear call. Such entries were picked first, then a sample of the others. For some of these results: A potency beside an inconclusive call is a rough fit, not a confirmed value. For some of these results: “Side channel” marks fits to a control or component signal instead of the main read-out. Active and inactive are the calls of the source. Unless noted, calls come from the whole dose curve; as a rule, active = well fitted curve in the direction sought with a large enough effect; inconclusive = small, poorly fitted or top-dose-only effect, or another doubt; inactive = no such curve, though single readings can be large; an effect the other way counts as inactive or inconclusive.

Legend:
[1] = Cell Viability - Hek293 (AID 427;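 active = compounds whose dose-response curve shows a full or clear partial loss of cell viability, called from curve shape rather than a numeric limit; inconclusive = weak partial curves or an effect only at the top dose; inactive = no dose-dependent loss of viability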;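 note: potency is the fitted concentration of half-maximal effect; cells exposed to compound for 40 hours at 37 °C before reading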); details: qHTS
How it was run: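 qHTS, human embryonic kidney (adenovirus-transformed) cells; 40 hr cpd, 37 °C; CellTiter-Glo ATP luminescence. Norm: DMSO = 0, 100 uM tamoxifen = 100% inhibition. Hill-fit AC50.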

[2] = Cell Viability - N2a (AID 540); details: N2a mouse neuroblastoma cell viability; activity change, negative = cytotoxicity: at 92.2 µM (top of the series);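 note: cells exposed to compound for 40 h at 37 °C; plate controls were DMSO alone for no effect and tamoxifen control for full effect; nearly all actives have a fitted effect of over 45% in size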
How it was run: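 In this qHTS cytotoxicity screen, ATP-dependent luciferase luminescence reports viable N2a cells after a 40 hr compound exposure in complete culture medium. Potencies are AC50 values from standard Hill equation fits.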

[3] = Cell Viability - NIH 3T3 (AID 541); details: NIH 3T3 cell viability, qHTS; activity change, negative = cytotoxicity: at 92.2 µM (top of the series);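 note: plate controls were DMSO alone for no effect and tamoxifen positive control for full effect; nearly all actives have a fitted effect of over 25% in size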
How it was run: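 In this cytotoxicity screen, acute toxicity is scored as an ATP drop measured by CellTiter-Glo in NIH 3T3 fibroblasts following a 40 hr, 37 °C incubation with compound.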

[4] = Cell Viability - H-4-II-E (AID 543); details: H-4-II-E rat hepatoma viability; series mostly up to 92.2 µM; note: potency is the fitted concentration of half-maximal effect; nearly all actives have a fitted effect of over 35% in size
How it was run: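 AC50 from Hill-modelled qHTS concentration-response curves. H-4-II-E rat hepatoma cells in complete medium, 40 hr exposure at 37 °C, viability by CellTiter-Glo ATP luminescence.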

[5] = Cell Viability - Renal Proximal Tubule (AID 545); details: renal proximal tubule cells viability; activity change, negative = cytotoxicity: at 91.7 µM (top of the series) unless noted; note: nearly all actives have a fitted effect of over 40% in size
How it was run: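 In this qHTS format, normal rat kidney-derived proximal tubule cells in complete culture medium receive compound titrations, then sit 40 hours at 37 °C before luciferase-based ATP quantitation; potency is reported as AC50 from concentration-response curves.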

[6] = Cellular Toxicity (caspase-3) Jurkat (AID 655); details: Jurkat caspase-3 activation, luminescence; caspase-3 activation: at 92.2 µM (top of the series), DMSO = 0%, tamoxifen = 100%;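 note: cells exposed to compound for 16 h at 37 °C before reading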
How it was run: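 qHTS in human Jurkat T-cell leukemia line: 16 hr compound treatment at 37 °C, caspase-3/7 activity measured by Caspase-Glo luminescence. AC50 derived from Hill equation.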

[7] = MultiTox-Fluor Cytotoxicity Assay - LYMP1-001 - Live Cells (AID 947); details: LYMP1-001 lymphoblastoid cells, live-cell protease fluorescence viability; series mostly up to 92.2 µM;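 note: 0% = DMSO only and full inhibition = tetraoctylammonium bromide control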
[8] = Cell Viability - LYMP2-011 (AID 969); details: LYMP2-011 lymphoblastoid cells viability; viability change, negative = cytotoxic: at 92.2 µM (top of the series);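 note: cells exposed to compound for 24 hours; 0% = DMSO only and full inhibition = 92 µM tetraoctylammonium bromide; nearly all actives have a fitted effect of over 60% in size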
How it was run: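 Cells seeded at 2500 per well rest 5 hr before compound addition, then incubate 24 hr at 37 C. CellTiter-Glo reagent is added for 30 min at room temperature before luminescence detection.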

[9] = target: Ubiquitin carboxyl-terminal hydrolase 1 (Homo sapiens) (UniProt O94782); assay: Inhibitors of USP1/UAF1: Pilot qHTS (AID 504865); details: purified USP1/UAF1, Ub-rhodamine cleavage fluorescence; series mostly up to 114 µM;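 note: rhodamine fluorescence freed from ubiquitin-rhodamine substrate followed over time; potency is the fitted concentration of half-maximal effect; nearly all actives have a fitted effect of over 35% in size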
How it was run: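 Enzyme-free wells gave the negative control, while test wells held 1nM USP1/UAF1 preincubated with compound for 15 min at room temperature. Ub-Rho at 150nM final started the reaction, and fluorescence at 480/540 nm was recorded kinetically.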

[10] = target: Bile acid receptor (Homo sapiens) (UniProt Q96RI1); assay: qHTS assay for small molecule antagonists of farnesoid X receptor signaling (AID 588526; calls by dose curve; note: potency is the fitted concentration of half-maximal effect); details: HEK293T FXR-UAS-bla, beta-lactamase ratio, antagonist mode; activity change, negative = inhibition: at 76.7 µM (top of the series)
How it was run: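 Beta-lactamase reporter antagonist mode: HEK293T FXR-UAS-bla cells, titrated compound, CDCA stimulation, 16 h 37 C, CCF4 dye 2 h RT. Data normalized to CDCA 50 uM and DMSO; Hill-fit IC50.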

[11] = target: Glucocorticoid receptor (Homo sapiens) (UniProt P04150); assay: qHTS assay for small molecule agonists of glucocorticoid receptor signaling (AID 588532; active = well fitted curve in the direction sought with a large enough effect in the signal ratio, with a control signal flat; inconclusive = small, poorly fitted or top-dose-only effect, or a change in a side signal; inactive = no such curve, though single readings can be large or run the other way; the % refers to the signal ratio; note: potency is the fitted concentration of half-maximal effect); details: HeLa MMTV-bla, beta-lactamase ratio, agonist, 18 h; activation: active compounds read high, percent of dexamethasone control, DMSO zero
How it was run: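 Quantitative HTS using CellSensor MMTV-bla HeLa cells in charcoal/dextran-treated serum; compounds tested up to 92 uM. After 18 h at 37 C, CCF4 dye reported reporter induction.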

[12] = target: Glucocorticoid receptor (Homo sapiens) (UniProt P04150); assay: qHTS assay for small molecule antagonists of glucocorticoid receptor signaling (AID 588533; active = well fitted inhibition curve with a large enough effect in the signal ratio, with a control signal flat, not every such curve was filed as active; inconclusive = small, poorly fitted or top-dose-only effect, or effect the other way, or a change in a side signal; the % refers to the signal ratio;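 note: cells stimulated with 2 nM dexamethasone as agonist; potency is the fitted concentration of half-maximal effect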); details: HeLa MMTV-bla, GRE beta-lactamase ratio, antagonist mode, 18 h; activity change, negative = inhibition: at 76.8 µM (top of the series)
[13] = target: Peroxisome proliferator-activated receptor gamma (Homo sapiens) (UniProt P37231); assay: qHTS assay for small molecule agonists of peroxisome proliferator-activated receptor gamma signaling (AID 588536; active = well fitted curve in the direction sought with a large enough effect in the signal ratio, with a control signal flat, not every such curve was filed as active; inconclusive = small, poorly fitted or top-dose-only effect, or effect the other way, or a change in a side signal; inactive = no such curve, though single readings can be large or run the other way; the % refers to the signal ratio;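 note: 0% = DMSO basal wells and 100% = rosiglitazone at 2 µM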); details: HEK293 PPARg-UAS-bla, beta-lactamase ratio, 16 h; activation: at 76.7 µM (top of the series), percent of rosiglitazone response, DMSO as zero
How it was run: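 Beta-lactamase reporter read-out: CCF4 fluorescence (ex 405, em 460/530 nm) after 2 h at RT. HEK293 GeneBLAzer cells were treated for 16 h at 37 C. Hill fits gave EC50 and efficacy versus 2 uM rosiglitazone (100%) and DMSO (0%).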

[14] = target: Vitamin D3 receptor (Homo sapiens) (UniProt P11473); assay: qHTS assay for small molecule agonists of vitamin D receptor signaling (AID 588543; calls by dose curve;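 note: 0% = DMSO basal and 100% = reference agonist control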); details: HEK293T VDR-UAS-bla, beta-lactamase ratio, 16 h; activation: at 76.8 µM (top of the series)
How it was run: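 Measured: β-lactamase reporter activity (CCF4, 405 nm excitation, 460/530 nm emission) in HEK293T VDR-UAS-bla cells after 16 h compound exposure at 37 °C. Normalization against 50 nM 1α,25-dihydroxyvitamin D3 and DMSO; Hill-fit EC50.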

[15] = target: Retinoic acid receptor RXR-alpha (Homo sapiens) (UniProt P19793); assay: qHTS assay for small molecule agonists of retinoid X receptor alpha signaling (AID 588544; calls by dose curve;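 note: 0% = DMSO basal wells and 100% = reference agonist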); details: HEK293T RXRa-UAS-bla, beta-lactamase reporter, 18 h; activation: at 76.7 µM (top of the series)
[16] = target: Thyroid hormone receptor beta (Homo sapiens) (UniProt P10828); assay: qHTS assay for small molecule agonists of thyroid hormone receptor beta signaling (AID 588545; calls by dose curve; note: potency is the fitted concentration of half-maximal effect;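 for activation: 0% = DMSO only and 100% = 10 nM T3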); details: TR-UAS-bla GripTite HEK 293, beta-lactamase ratio, agonist mode, 18 h; activation: at 76.7 µM, percent of T3 response, DMSO as zero
How it was run: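 Beta-lactamase reporter activity under TR response element control is measured in HEK 293 cells after 18 hrs compound exposure. Signal is ratiometric CCF4 fluorescence, 460/530 nm.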

[17] = target: Thyroid hormone receptor beta (Homo sapiens) (UniProt P10828); assay: qHTS assay for small molecule antagonists of thyroid hormone receptor beta signaling (AID 588547; active = well fitted inhibition curve with a large enough effect in the signal ratio, with a control signal flat, not every such curve was filed as active; inconclusive = small, poorly fitted or top-dose-only effect, or effect the other way, or a change in a side signal; the % refers to the signal ratio; note: potency is the fitted concentration of half-maximal effect); details: TR-UAS-bla HEK293, beta-lactamase ratio, antagonist mode, 18 h
How it was run: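 Inhibition of T3-driven (0.4nM final) beta-lactamase reporter activity was measured over 0.59 nM to 92 uM compound after 18 h at 37 C. The cells were GripTite HEK293 TR-UAS-bla in charcoal/dextran-stripped serum, with CCF4 ratio read-out and IC50 from Hill fits.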

[18] = qHTS assay for small molecule agonists of the antioxidant response element (ARE) signaling pathway (AID 651741; active = well fitted activation curve with a large enough effect in the signal ratio; inconclusive = small, poorly fitted or top-dose-only effect, or effect the other way, or a change in a side signal; the % refers to the signal ratio; note: potency is the fitted concentration of half-maximal effect); details: HepG2 ARE-bla reporter, beta-lactamase FRET ratio, 16 h; activation: at 96 µM (top of the series)
How it was run: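 Agonist activity is measured as ARE-driven beta-lactamase expression in a stable HepG2 reporter line, using 16 h compound treatment at 37 C and a FRET substrate fluorescence readout after 2 h.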

[19] = qHTS assay for small molecule activators of the p53 signaling pathway (AID 651743; active = well fitted activation curve with a large enough effect in the signal ratio, not every such curve was filed as active; inconclusive = small, poorly fitted or top-dose-only effect, or a change in a side signal; the % refers to the signal ratio; note: potency is the fitted concentration of half-maximal effect); details: HCT-116 p53RE-bla, beta-lactamase FRET ratio, 16 h; activation: active compounds read high
How it was run: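 A beta-lactamase reporter under p53 response element control, stably carried by HCT-116 cells, reported pathway activation. Test compounds were applied for 16 hours at 37 C, and fluorescence was measured 2 hours after adding the B/G FRET substrate.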

[20] = qHTS assay for small molecule activators of the nuclear factor-kappa B (NF-kB) signaling pathway (AID 651749; active = well fitted activation curve with a large enough effect in the signal ratio; inconclusive = small, poorly fitted or top-dose-only effect, or a change in a side signal; the % refers to the signal ratio; note: potency is the fitted concentration of half-maximal effect); details: NF-kB-bla ME-180 cells, beta-lactamase FRET ratio, 16 h; activation: active compounds read high
How it was run: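 FRET-based beta-lactamase detection in ME-180 cells reports NF-kB response-element-driven transcription following overnight (16 hr) compound treatment.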

[21] = qHTS assay to identify small molecules that stimulate interleukin-8 (IL-8) secretion (AID 651758; active = well fitted activation curve with a large enough effect in the signal ratio; inconclusive = small, poorly fitted or top-dose-only effect, or effect the other way, or a change in a side signal; the % refers to the signal ratio; note: potency is the fitted concentration of half-maximal effect); details: HTRF ratio (665/615); activation: at 92.2 µM (top of the series)
How it was run: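 Secreted IL-8 measured homogeneously by TR-FRET (two labelled anti-IL-8 antibodies, 1-3 h at room temperature) after a 16 h, 37 C compound treatment of THP-1 cells at 2000 cells/well.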

[22] = target: Nuclear receptor ROR-gamma (Homo sapiens) (UniProt P51449); assay: qHTS assay for small molecule antagonists of the retinoid-related orphan receptor gamma (ROR-gamma) signaling pathway (AID 651802); details: ROR-gamma antagonist cell reporter assay; series mostly up to 92.2 µM; note: potency is the fitted concentration of half-maximal effect; nearly all actives have a fitted effect of over 60% in size
How it was run: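 Doxycycline-induced reporter activity in engineered CHO cells (TET-inducible ROR, RORE-LUC) was measured by luminescence after 16hr compound exposure at 37C.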

[23] = ZIKV-mCherry secondary qHTS for Zika virus inhibitors (AID 1347158); details: Vero cells, ZIKV-mCherry infection imaging, 48-72 h; note: potency is the fitted concentration of half-maximal effect
How it was run: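 This orthogonal imaging screen measured ZIKV-mCherry infection of Vero cells exposed to compound, MOI 1, 48-72 h. Percent infection came from segmented nuclei scored mCherry-positive above 3 SD of negative controls.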

[24] = Tertiary RLuc qRT-PCR qHTS assay for Zika virus inhibitors (AID 1347169); details: infected Vero cells, reporter luminescence, 48-72 h; activity change, negative = inhibition: at 45.9 µM (top of the series); note: potency is the fitted concentration of half-maximal effect; nearly all actives have a fitted effect of over 55% in size
How it was run: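 Inhibition of ZIKV-RLuc replication in Vero cells, read as Renilla luminescence 1-1.5 hrs after live-cell substrate addition, following 48-72 hrs infection at MOI 1-2 in presence of compound.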
Tags give direction and shape of the fitted curve or compound fluorescence and quenching.

UniProt P10828, sequence (P10828 whole entry, looked up): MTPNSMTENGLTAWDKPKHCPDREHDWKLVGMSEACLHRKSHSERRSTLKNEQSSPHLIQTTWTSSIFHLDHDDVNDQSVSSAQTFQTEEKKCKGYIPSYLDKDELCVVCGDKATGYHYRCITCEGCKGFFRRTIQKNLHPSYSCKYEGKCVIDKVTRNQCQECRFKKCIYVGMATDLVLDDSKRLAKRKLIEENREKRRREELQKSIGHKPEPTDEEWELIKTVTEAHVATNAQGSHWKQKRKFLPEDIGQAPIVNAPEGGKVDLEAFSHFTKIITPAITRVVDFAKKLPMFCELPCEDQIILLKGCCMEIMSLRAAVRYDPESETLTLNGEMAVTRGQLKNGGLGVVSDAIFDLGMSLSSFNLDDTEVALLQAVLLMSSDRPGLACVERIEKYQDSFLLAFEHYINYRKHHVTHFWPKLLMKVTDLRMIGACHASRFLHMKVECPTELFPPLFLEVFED
UniProt P11473, sequence (P11473 whole entry, looked up): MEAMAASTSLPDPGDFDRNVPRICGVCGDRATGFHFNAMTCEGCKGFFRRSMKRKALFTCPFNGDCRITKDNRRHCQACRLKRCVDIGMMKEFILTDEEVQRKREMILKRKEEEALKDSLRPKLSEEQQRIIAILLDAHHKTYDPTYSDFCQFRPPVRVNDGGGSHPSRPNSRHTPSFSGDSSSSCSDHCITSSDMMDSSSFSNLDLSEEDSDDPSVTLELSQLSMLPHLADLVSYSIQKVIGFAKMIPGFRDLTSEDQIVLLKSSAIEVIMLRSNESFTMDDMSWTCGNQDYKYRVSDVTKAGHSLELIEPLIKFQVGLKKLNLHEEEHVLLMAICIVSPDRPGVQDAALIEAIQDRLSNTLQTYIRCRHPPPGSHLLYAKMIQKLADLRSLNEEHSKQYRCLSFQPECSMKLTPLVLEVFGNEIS
UniProt P19793, sequence (P19793 whole entry, looked up): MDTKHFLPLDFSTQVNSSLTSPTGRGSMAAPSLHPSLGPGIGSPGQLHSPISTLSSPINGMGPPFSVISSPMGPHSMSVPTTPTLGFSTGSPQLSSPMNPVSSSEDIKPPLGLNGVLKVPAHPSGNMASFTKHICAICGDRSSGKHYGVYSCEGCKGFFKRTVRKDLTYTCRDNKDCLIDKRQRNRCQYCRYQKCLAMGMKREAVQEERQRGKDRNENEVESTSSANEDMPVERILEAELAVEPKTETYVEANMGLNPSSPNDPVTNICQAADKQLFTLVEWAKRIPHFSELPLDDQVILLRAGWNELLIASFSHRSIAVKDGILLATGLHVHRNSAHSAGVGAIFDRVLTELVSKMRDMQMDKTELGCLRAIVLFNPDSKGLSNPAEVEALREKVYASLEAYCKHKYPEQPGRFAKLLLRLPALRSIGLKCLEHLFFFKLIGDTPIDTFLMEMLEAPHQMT
UniProt P51449, sequence (P51449 whole entry, looked up): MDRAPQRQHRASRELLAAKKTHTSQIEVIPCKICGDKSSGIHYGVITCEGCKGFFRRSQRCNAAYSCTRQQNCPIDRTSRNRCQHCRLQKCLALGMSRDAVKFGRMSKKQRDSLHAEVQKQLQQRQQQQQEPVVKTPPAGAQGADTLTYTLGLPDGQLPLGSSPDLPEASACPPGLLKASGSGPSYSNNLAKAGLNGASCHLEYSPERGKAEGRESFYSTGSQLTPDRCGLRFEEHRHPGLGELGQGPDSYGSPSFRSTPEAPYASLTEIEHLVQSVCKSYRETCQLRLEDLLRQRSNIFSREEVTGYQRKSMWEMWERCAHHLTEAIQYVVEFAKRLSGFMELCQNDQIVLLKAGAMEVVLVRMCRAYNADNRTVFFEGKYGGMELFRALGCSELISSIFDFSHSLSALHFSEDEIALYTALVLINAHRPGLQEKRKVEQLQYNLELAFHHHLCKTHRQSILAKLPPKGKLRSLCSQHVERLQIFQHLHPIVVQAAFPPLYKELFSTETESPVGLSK
UniProt Q96RI1, sequence (Q96RI1 whole entry, looked up): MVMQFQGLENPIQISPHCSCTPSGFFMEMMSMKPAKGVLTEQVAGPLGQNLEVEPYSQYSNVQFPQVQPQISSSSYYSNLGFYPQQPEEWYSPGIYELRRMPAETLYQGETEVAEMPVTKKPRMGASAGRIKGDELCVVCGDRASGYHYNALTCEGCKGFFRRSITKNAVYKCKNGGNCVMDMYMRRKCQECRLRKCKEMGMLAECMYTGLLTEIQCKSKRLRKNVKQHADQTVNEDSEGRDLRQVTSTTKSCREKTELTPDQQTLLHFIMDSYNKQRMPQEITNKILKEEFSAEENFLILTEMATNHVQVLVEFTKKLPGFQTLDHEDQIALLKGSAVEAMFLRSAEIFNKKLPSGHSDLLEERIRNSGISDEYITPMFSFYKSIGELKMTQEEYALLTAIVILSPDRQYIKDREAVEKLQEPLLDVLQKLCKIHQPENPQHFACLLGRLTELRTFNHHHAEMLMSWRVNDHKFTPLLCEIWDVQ
UniProt O94782, sequence (O94782 whole entry, looked up): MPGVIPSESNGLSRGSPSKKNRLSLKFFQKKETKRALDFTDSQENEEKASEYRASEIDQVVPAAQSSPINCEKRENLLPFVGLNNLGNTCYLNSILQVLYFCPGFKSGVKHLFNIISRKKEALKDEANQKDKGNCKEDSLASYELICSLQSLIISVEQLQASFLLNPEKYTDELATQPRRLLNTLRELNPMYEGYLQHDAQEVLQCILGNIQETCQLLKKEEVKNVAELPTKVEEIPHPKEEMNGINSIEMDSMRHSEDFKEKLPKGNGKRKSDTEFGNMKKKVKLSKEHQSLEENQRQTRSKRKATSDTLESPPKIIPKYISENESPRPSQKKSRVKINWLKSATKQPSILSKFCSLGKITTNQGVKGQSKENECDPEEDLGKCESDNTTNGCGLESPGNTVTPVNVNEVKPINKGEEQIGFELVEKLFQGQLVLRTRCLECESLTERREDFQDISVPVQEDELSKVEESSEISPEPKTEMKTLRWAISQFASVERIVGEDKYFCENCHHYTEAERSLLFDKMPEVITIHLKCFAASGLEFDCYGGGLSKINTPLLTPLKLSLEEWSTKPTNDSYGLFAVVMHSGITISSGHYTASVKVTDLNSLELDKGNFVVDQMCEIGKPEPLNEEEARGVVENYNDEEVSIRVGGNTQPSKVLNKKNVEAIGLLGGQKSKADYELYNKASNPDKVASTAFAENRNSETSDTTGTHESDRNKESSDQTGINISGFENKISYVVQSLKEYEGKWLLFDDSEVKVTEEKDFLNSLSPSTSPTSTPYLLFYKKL

Oc1c(Cl)c(Cl)c(Cl)c(Cl)c1Cl
inconclusive: Potency [1] 106 µM [single point] | activity change, negative = cytotoxicity [3] -37% | Potency [4] 50.1 µM [falling, partial curve] | activity change, negative = cytotoxicity [5] -37% | caspase-3 activation [6] 71.2% | Potency [11] 0.0355 µM [side channel, falling, full curve, poor fit] | Potency [12] 50.1 µM [inhibitor, single point] | activation [13] -10% and -3.37% | activation [15] -16% | Potency [16] 0.0013 µM | Potency [17] 0.0141 µM [cytotoxic, side channel, full curve, poor fit] | Potency [20] 11.2 µM [side channel, falling, full curve] | Potency [21] 75 µM [activator, single point] | Potency [24] 0.551 µM [inhibitor, single point]
active: activity change, negative = cytotoxicity [2] -109% | Potency [9] 79.4 µM | Potency [10] 25.1 µM | Potency [18] 26.6 µM and 24.3 µM | Potency [19] 22.4 µM and 39.8 µM | Potency [22] 16.8 µM | Potency [23] 11.2 µM
inactive: Potency [7] | Potency [8] | Potency [14] | activation [16] 4.67%
